PubChem BioAssay AID588591 (National Center for Advancing Translational Sciences (NCATS), 2011)
About 4,700 (1.2%) of roughly 390,000 compounds were called active. The inconclusive results got no clear call from the source; some entries with a clear call stand among them for comparison. The call rests on the fitted dose curve; in most records, active means well fitted inhibition curve with a large enough effect; inconclusive means small, poorly fitted or top-dose-only effect, or another doubt; inactive means no such curve, though single readings can be large or run the other way. Potencies of inconclusive entries are doubtful fits and often do not repeat.

Each compound was assayed against DNA polymerase eta (Homo sapiens) (UniProt Q9Y253) (assay: qHTS for Inhibitors of Polymerase Eta). Details: recombinant Pol eta, fluorescent DNA replication assay; series mostly up to 114 µM.
In short: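 Pol eta at 10 nM preincubated with compounds 15 min at room temperature; reaction started with fluorescent substrate (50 nM final) and read kinetically at 0 and 10 min.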
Potency means the concentration at half of the fitted maximal effect; tags describe the fitted curve by direction and shape.

Chain of UniProt Q9Y253 (Q9Y253 whole entry, looked up): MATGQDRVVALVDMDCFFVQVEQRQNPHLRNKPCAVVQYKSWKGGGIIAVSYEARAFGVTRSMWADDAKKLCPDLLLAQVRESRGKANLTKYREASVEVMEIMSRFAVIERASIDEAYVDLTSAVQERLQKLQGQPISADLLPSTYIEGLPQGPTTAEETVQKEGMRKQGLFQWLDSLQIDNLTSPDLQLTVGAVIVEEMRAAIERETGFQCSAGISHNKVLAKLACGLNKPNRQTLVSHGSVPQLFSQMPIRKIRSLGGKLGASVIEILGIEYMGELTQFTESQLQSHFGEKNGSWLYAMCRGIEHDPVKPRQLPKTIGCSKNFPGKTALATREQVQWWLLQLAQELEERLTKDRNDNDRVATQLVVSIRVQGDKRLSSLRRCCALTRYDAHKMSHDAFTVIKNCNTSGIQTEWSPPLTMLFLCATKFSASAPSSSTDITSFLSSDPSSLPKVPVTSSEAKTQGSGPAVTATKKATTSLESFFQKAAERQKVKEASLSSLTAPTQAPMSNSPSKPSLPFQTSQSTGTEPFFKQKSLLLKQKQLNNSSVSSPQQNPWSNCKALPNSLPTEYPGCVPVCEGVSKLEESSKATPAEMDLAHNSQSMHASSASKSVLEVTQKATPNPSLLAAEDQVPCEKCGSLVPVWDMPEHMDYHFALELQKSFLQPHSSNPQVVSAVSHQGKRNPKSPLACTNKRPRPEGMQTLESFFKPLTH

Compound	Potency
O=c1c2ccccc2cnn1-c1nc2ccccc2[nH]1	inactive
Cc1nc2ccc(NC(=O)COc3ccccc3F)cc2s1	inactive
CCCCNS(=O)(=O)c1ccc2nc(SCC(=O)c3ccc(C#N)cc3)[nH]c2c1	inconclusive: 39.8 µM [inhibitor, single point]
CN1CCS/C1=C/C=C1/SC(=S)N(Cc2ccccc2)C1=O	inconclusive: 15.8 µM [inhibitor, full curve, poor fit]
Cc1nn(Cc2ccccc2)c(C)c1/C=N/NC(=O)CNc1cccc(C(F)(F)F)c1	inconclusive: 50.1 µM [inhibitor, partial curve, poor fit]
NCC12CC3CC(C1)CC(c1ccc(Br)cc1)(C3)C2	inconclusive: 79.4 µM [inhibitor, partial curve, poor fit]
COc1cccc(OCc2nnc(SCC(=O)NCc3ccco3)n2C)c1	inactive
Clc1ccc(N2N=C(c3cccs3)CC2c2ccco2)cc1 (configuration not stated)	inconclusive: 20 µM [inhibitor, partial curve, poor fit]
Cc1cccc(C)c1Nc1nnc(SC/C(O)=C(\C#N)c2nc3ccccc3[nH]2)s1	active: 17.8 µM
COC(=O)c1ccc2c(=O)[nH]c(COC(=O)c3[nH]c(C)c(C(C)=O)c3C)nc2c1	inconclusive: 56.2 µM [inhibitor, partial curve, poor fit]
CCc1cc(=O)oc2c3c(cc(OCC(=O)NCCCCCC(=O)O)c12)OC(C)(C)CC3	inactive
Cc1cc(C)c2nc(N3C(=O)C(O)=C(C(=O)c4ccco4)C3c3ccco3)sc2c1 (configuration not stated)	inconclusive: 44.7 µM [inhibitor, partial curve]
CCc1ccc(CN(C)CC(=O)Nc2sccc2C#N)cc1	inconclusive: 31.6 µM [inhibitor, partial curve, poor fit]
CC(=O)Nc1ccccc1-c1nc2ccccc2n(CC(=O)Nc2cccc(C)c2C)c1=O	inactive
CC(=O)N1CCN(c2ccccc2NC(=O)COc2cc(C)ccc2C(C)C)CC1	inconclusive: 44.7 µM [inhibitor, partial curve, poor fit]
O=C(CSc1nc(=O)n(CCN2CCOCC2)c2c1CCC2)Nc1ccc(Cl)c(Cl)c1	inactive
CCCn1c(CCC(=O)O)ccc1-c1cccs1	inconclusive: 22.4 µM [inhibitor, partial curve, poor fit]
Cc1cccc2c1N1C(=O)c3c(C(=O)O)cccc3C1CC2C (configuration not stated)	inconclusive: 31.6 µM [inhibitor, single point]
COc1ccc(N2CCN(S(=O)(=O)c3ccc(-c4coc(C)n4)cc3)CC2)cc1	inconclusive: 89.1 µM [inhibitor, single point]
CCCCC12CN3CC(C)(CN(C1)C3c1c[nH]c3ccccc13)C2=O (configuration not stated)	inconclusive: 89.1 µM [inhibitor, partial curve, poor fit]
CC(=O)NC(c1cccs1)c1cc([N+](=O)[O-])c2cccnc2c1O (configuration not stated)	inconclusive: 28.2 µM [inhibitor, partial curve, poor fit]

Compound	Potency
CCOc1ccc(CNC(=O)CCc2c(C)nn(-c3ccc(N4CCCCC4)nn3)c2C)cc1	inactive
Cc1nnc(NC(=O)c2ccc3nccnc3c2)s1	inconclusive: 17.8 µM [inhibitor, full curve]
Clc1ccccc1CSc1nnc(-c2ccccn2)n1Cc1ccco1	inconclusive: 22.4 µM [inhibitor, partial curve, poor fit]
O=C(NCc1ccccc1F)C(=O)NCC(c1ccc2c(c1)OCO2)N1CCOCC1 (configuration not stated)	inconclusive: 89.1 µM [inhibitor, partial curve, poor fit]
O=C(NCc1ccco1)c1c(Cl)cccc1Cl	inactive
CC(=O)Nc1ccc(S(=O)(=O)N(C)c2ccc(OCCOc3ccccc3F)cc2)cc1	inconclusive: 39.8 µM [inhibitor, partial curve, poor fit]
CC[n+]1c(/C=C2\Sc3ccccc3N2C)ccc2cccc(C)c21	inconclusive: 35.5 µM [inhibitor, full curve]
CCCCN(CCCC)C1=Nc2ccccc2N/C1=C(/C#N)C(=O)OCC	inconclusive: 15.8 µM [inhibitor, full curve, poor fit]
CCOc1ccc(CCNC(=O)c2c(C)oc3ncn(CC(C)C)c(=O)c23)cc1OCC	inactive
O=C(CN1C(=O)NC2(CCCCCCC2)C1=O)N1CCN(C(=O)c2ccco2)CC1	inconclusive: 22.4 µM [inhibitor, partial curve]
O=C(O)CCc1ccc(-c2cccs2)n1NC(=O)c1ccc(Cl)cc1Cl	inconclusive: 89.1 µM [inhibitor, partial curve, poor fit]
CCN1C(=O)[C@@H]2[C@@H](c3ccc(-c4ccc(C(C)=O)cc4)c(OC)c3)N3CCCC[C@@]3(C(=O)OC)[C@@H]2C1=O	inconclusive: 79.4 µM [inhibitor, partial curve, poor fit]
O=C(c1ccc(Br)o1)N1CCN(c2ccc3nnc(-c4ccc(F)cc4)n3n2)CC1	inconclusive: 22.4 µM [inhibitor, single point]
O=C(CNC(=O)c1ccco1)NCC(=O)OCc1ccc(C(=O)Oc2ccc(Cl)cc2)cc1	inconclusive: 28.2 µM [inhibitor, partial curve, poor fit]
CCC(Sc1ncnc2sc(C)c(C)c12)C(=O)OC (configuration not stated)	inconclusive: 28.2 µM [inhibitor, partial curve, poor fit]
CC1=C(C#N)C(=O)NC(=O)/C1=C/c1ccc(-c2ccc(S(N)(=O)=O)cc2)o1	active: 14.1 µM
O=C(OCc1cc(=O)n2nc(-c3cccs3)sc2n1)c1ccccc1Cl	inconclusive: 100 µM [inhibitor, partial curve, poor fit]
COc1cccc(CSc2nc3n(n2)C(c2ccc(C(=O)O)cc2)C(C(=O)Nc2ccccc2)=C(C)N3)c1 (configuration not stated)	inconclusive: 89.1 µM [inhibitor, single point]
CCC(C)N(C(=O)COc1ccccc1C(=O)NCc1ccccc1)C1CCS(=O)(=O)C1 (configuration not stated)	inconclusive: 89.1 µM [inhibitor, partial curve, poor fit]
Cc1cc(NS(=O)(=O)c2ccc(Nc3nc(-c4ccc(C)c(C)c4)cs3)cc2)no1	inconclusive: 89.1 µM [inhibitor, single point]
O=C(CSCc1c(F)cccc1Cl)NNC(=S)NC1CCCCC1	inactive

Compound	Potency
COc1ccc(NC(=O)COc2coc(CN3CCCc4ccccc43)cc2=O)cc1	inconclusive: 14.1 µM [inhibitor, full curve, poor fit]
CC(C)CCNC(=O)C(=O)Nc1cc2c3c(c1)CCC(=O)N3CCC2	inconclusive: 89.1 µM [inhibitor, partial curve, poor fit]
O=C(Nc1cccc([N+](=O)[O-])c1)c1[nH]ncc1Cl	inconclusive: 79.4 µM [inhibitor, partial curve, poor fit]
Cc1csc(=O)n1CCC(=O)OCC(=O)Nc1cc(Cl)ccc1[N+](=O)[O-]	inactive
Cc1ccc(S(=O)(=O)n2nc(OC(=O)c3ccccc3F)cc2N)cc1	inactive
CC(=O)c1ccc(-c2ccc(C(=O)Nc3nc(-c4ccccn4)cs3)o2)cc1	inconclusive: 15.8 µM [inhibitor, partial curve, poor fit]
CN1CCN(C(=O)c2ccc3c(c2)N(Cc2ccc(C(F)(F)F)cc2)C(=O)c2ccccc2S3)CC1	inactive
COc1ccc(OC)c(/C=C/c2[nH]c(=O)[nH]c(=O)c2[N+](=O)[O-])c1	inconclusive: 22.4 µM [inhibitor, full curve]
COc1ccc(-c2nc3sc(CCNC(=O)C(=O)Nc4ccc(OC)c(OC)c4)c(C)n3n2)cc1	inactive
CN(C(=O)COC(=O)c1cccc(S(=O)(=O)N2CCOCC2)c1)C1CCS(=O)(=O)C1 (configuration not stated)	inconclusive: 3.98 µM [inhibitor, partial curve, poor fit]
Cc1ccc([C@H]2C(C(=O)O)=CC[C@@H](c3ccc(Cl)c(Cl)c3)N2S(=O)(=O)c2ccc(C)cc2)cc1	inconclusive: 89.1 µM [inhibitor, single point]
COc1cc2c(C#N)c(N3CCCC3)nc(N)c2c(N)n1	active: 22.4 µM
CC(=O)c1cccc(OCC(=O)N(CCC2=CCCCC2)c2c(N)n(Cc3ccccc3)c(=O)[nH]c2=O)c1	inconclusive: 28.2 µM [inhibitor, partial curve, poor fit]
CCc1ccccc1NC(=O)CCS(=O)(=O)c1ccc(OC)cc1	inconclusive: 39.8 µM [inhibitor, partial curve, poor fit]
CC1(C)OC(=O)C(=Cc2ccc(-c3ccc(Cl)c(C(=O)O)c3)o2)C(=O)O1	active: 10 µM
O=C(CCS(=O)(=O)c1ccc(Br)cc1)NCCc1ccc(Cl)cc1	active: 20 µM
Cc1[nH][nH]c(=O)c1C(c1ccc(O)c([N+](=O)[O-])c1)c1c(C)[nH][nH]c1=O	inconclusive: 20 µM [inhibitor, partial curve, poor fit]
O=C(O)c1ccc(Cl)c(NC(=S)NC(=O)c2cccc(COc3ccccc3)c2)c1	active: 44.7 µM
CCc1cccc(NC(=O)c2snc3c(=O)[nH]cnc23)c1	inconclusive: 25.1 µM [inhibitor, partial curve, poor fit]
OCC[C@H]1C[C@@H](O)[C@H](O)[C@@]2(CCCc3ccccc3O2)O1	inconclusive: 89.1 µM [inhibitor, partial curve, poor fit]
